Hit rate of the full screen: of about 43,000 compounds, about 830 (1.9%) were called active. Inconclusive means that the source gave no clear call. Such entries were picked first, then a sample of the others. Rule for the calls: active = clear falling dose curves in both reporters; inconclusive = both reporters move, but less clearly or upward; inactive = either reporter flat; the % is the NLuc reporter signal. Potencies of inconclusive entries are left out as doubtful fits.
Assay: Cell-based coincidence reporter assay to measure PMP22 gene transcription in S16 Pmp22-F2sN cells - Primary screen
Conditions: S16 Pmp22-F2sN Schwann cells (luciferase reporters placed in the Pmp22 gene), FLuc/NLuc coincidence luminescence, 24 h; measured here: NLuc reporter readout, at 57.5 µM (top of the series); activity change, negative = inhibition: at the top concentration
Procedure, shortened: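 Transcriptional readout in edited S16(c9) cells: two luciferases reported from the Pmp22 locus, measured in turn after 24 h compound incubation.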
% is set by controls: 0 for no effect and ±100 for the full control effect; potency is the fitted concentration of half-maximal effect; tags give direction and shape of the fitted curve.

Row | SMILES | Potency | activity change, negative = inhibition
1 | CCC(Sc1nc2ccccc2c2nc(CCc3c(C)n[nH]c3C)nn12)C(=O)Nc1ccc(F)cc1 (stereo not drawn) | inconclusive [phenotype inactive, full curve, poor fit] | –
2 | CCCNC(=O)c1ccc2c(c1)N=C(C)c1c(C)ccc(C)c1S2 | active: 0.392 µM | –
3 | COc1ccc(-c2nc3sc(CCNC(=O)c4ccc(Br)o4)c(C)n3n2)cc1 | inconclusive [phenotype inactive, single point] | –
4 | Cc1nc(-c2ccc(F)cc2)sc1CCNC(=O)Cc1ccc(F)cc1 | inconclusive [phenotype inactive, single point] | –
5 | CCn1cc2nc(SCc3ccccc3Cl)n(Cc3ccc(OC)cc3)c(=O)c2n1 | inconclusive [phenotype inactive, partial curve] | –
6 | Cc1ccc(Cn2c(CCNC(=O)c3cccc(C)c3)nc3ccccc32)cc1 | – | inactive: -16.6%
7 | COc1ccc(Cl)cc1NC(=O)CSC1=Nc2ccccc2C2=NC(CCC(=O)NCc3ccco3)C(=O)N12 (stereo not drawn) | active: 20 µM | –
8 | O=S(=O)(NCc1ccc(F)cc1)c1ccc(N2CCCCS2(=O)=O)cc1 | active: 11.9 µM | –
9 | COc1ccc(NC(=O)C2=C(C)Nc3nc(SCc4ccc(Cl)cc4)nn3C2c2cccc(OC)c2OC)cc1 (stereo not drawn) | inconclusive [phenotype inactive, single point] | –
10 | CCSc1ncc(Cl)c(C(=O)Nc2cccc(Cl)c2)n1 | inconclusive [phenotype inactive, single point] | –
11 | COc1cc(Cl)c(C)cc1NC(=O)c1cnc(N2CCCCC2)c2ccccc12 | – | inactive: -33.9%
12 | COc1ccccc1CN1CCC(CNC(=O)c2cnn(-c3ccccc3Cl)c2C2CCN(C(=O)OC(C)(C)C)CC2)CC1 | inconclusive [phenotype inactive, partial curve] | –
13 | CC(C)CC(=O)NCC(c1ccc2c(c1)OCO2)N1CCN(c2ccccc2)CC1 (stereo not drawn) | inconclusive [phenotype inactive, single point] | –
14 | Cc1c(C(=O)OC2CCCCC2)[nH]c2c1C(=O)CC(c1ccc(F)cc1)C2 (stereo not drawn) | inconclusive [phenotype inactive, partial curve] | –
15 | CCCN(CCC)C(=O)Cn1c(=O)n(-c2cccc(C)c2)c(=O)c2c1c1cc(OC)ccc1n2C | inconclusive [phenotype inactive, single point] | –
16 | CCc1ccc(CNC(=O)C2CCCN(c3nnc(C)c4c(C)n(-c5ccccc5)nc34)C2)cc1 (stereo not drawn) | inconclusive [phenotype inactive, partial curve] | –
17 | COc1ccc(CC(=O)NCC(c2cccs2)S(=O)(=O)c2ccc(F)c(C)c2)cc1 (stereo not drawn) | – | inactive: -10.2%
18 | CC(=O)Nc1ccc(NC(=O)CN(C)S(=O)(=O)c2ccc3c(c2)CCCC(=O)N3)cc1 | – | inactive: 9.4%
19 | COc1ccc(-c2nnc(C3CCN(S(=O)(=O)c4cccc(Cl)c4)CC3)o2)cc1 | inconclusive [phenotype inactive, single point] | –

Row | SMILES | Potency | activity change, negative = inhibition
20 | COc1cc(-c2nc(SCC(=O)Nc3ccc4c(c3)OCO4)c(-c3ccccc3)[nH]2)cc(OC)c1OC | – | inactive: -57.6%
21 | Clc1ccc(CCNc2nc3cc(Cl)c(Cl)cc3n3cnnc23)cc1 | – | inactive: 2.34%
22 | CCOC(=O)c1cccc(NC(=O)CCS(=O)(=O)c2ccc3c(c2)CCN3C(=O)CC)c1 | inconclusive [phenotype inactive, single point] | –
23 | CC(C)(C)c1ccc(C(=O)Nc2ccc(-c3nc4ccccc4o3)c(O)c2)cc1 | inconclusive [phenotype inactive, single point] | –
24 | CCCN1Cc2cccc(C(=O)Nc3cc(Cl)ccc3C)c2C1=O | inconclusive [phenotype inactive, partial curve] | –
25 | O=C(Nc1nc2c(F)cc(F)cc2s1)c1ccc(S(=O)(=O)N2CCc3ccccc32)cc1 | inconclusive [phenotype inactive, single point] | –
26 | CCc1ccccc1Nc1nn2c(=O)c3ccc(C(=O)NCCC4=CCCCC4)cc3nc2s1 | inconclusive [phenotype inactive, partial curve] | –
27 | COCCCn1c(SCc2cccc(Cl)c2)nc2c(sc3ccccc32)c1=O | inconclusive [phenotype inactive, single point] | –
28 | Cc1ccccc1-c1noc(CSc2nc3ccccc3[nH]2)n1 | – | inactive: -73.1%
29 | CCOC(=O)c1sc2ccccc2c1S(=O)(=O)NCc1ccccc1OC | inconclusive [phenotype inactive, single point] | –
30 | CCc1cc2c(cc3c(=O)n(CC(=O)NC(C)c4ccccc4)ncn32)s1 (stereo not drawn) | inconclusive [phenotype inactive, single point] | –
31 | COc1cc(-c2nc3sccn3c2Nc2c(C)cccc2C)ccc1O | – | inactive: -37.5%
32 | O=C(NC1CCN(Cc2ccccc2)CC1)c1ccc(Cn2c(=O)c3ccccc3n(Cc3ccc(Cl)cc3)c2=O)cc1 | active: 12.1 µM | –
33 | CC(=O)c1ccc(NC(=O)CSC2=Nc3ccccc3N=C(c3ccc(F)cc3)C2)cc1 | active: 14.5 µM | –
34 | Cc1ccc(-n2nc3c(=O)n(C(C)C(=O)NCc4ccc(OC(C)C)cc4)nc(C)c3c2C)cc1 (stereo not drawn) | inconclusive [phenotype inactive, partial curve] | –
35 | Cc1ccc(NC(=O)c2cc(S(=O)(=O)N3CCC4(CC3)OCCO4)ccc2F)cc1Cl | inconclusive [phenotype inactive, single point] | –
36 | CCOC(=O)N1CCc2c(sc3c2C(=O)NC(c2ccc(N(C)C)cc2)N3)C1 (stereo not drawn) | inconclusive [phenotype inactive, partial curve, poor fit] | –
37 | Cc1ccc(C)c(N2CCN(C(=O)Cn3cnc4onc(-c5ccc(F)cc5)c4c3=O)CC2)c1 | – | inactive: 8.99%
38 | CCOc1ccc2ncc3c(-c4ccc(C)cc4)nn(-c4cccc(F)c4)c3c2c1 | inconclusive [phenotype inactive, single point] | –
